Measured values reported in publication PMC7311467.
Residue numbers refer to the chain shown, from its start. No constants are given. Whether binding was seen depends on the method and setting. In cells and extracts the contact can be indirect. Some results given as binding are weak or reduced against the parent protein; the word gives no strength. For some of these results: Tags and fused reporters may be left off the sequences shown. Each block holds one molecule with its values, some of them ahead of it.

Amino acid sequences for entries named in this document (tags omitted).
UniProt O60934: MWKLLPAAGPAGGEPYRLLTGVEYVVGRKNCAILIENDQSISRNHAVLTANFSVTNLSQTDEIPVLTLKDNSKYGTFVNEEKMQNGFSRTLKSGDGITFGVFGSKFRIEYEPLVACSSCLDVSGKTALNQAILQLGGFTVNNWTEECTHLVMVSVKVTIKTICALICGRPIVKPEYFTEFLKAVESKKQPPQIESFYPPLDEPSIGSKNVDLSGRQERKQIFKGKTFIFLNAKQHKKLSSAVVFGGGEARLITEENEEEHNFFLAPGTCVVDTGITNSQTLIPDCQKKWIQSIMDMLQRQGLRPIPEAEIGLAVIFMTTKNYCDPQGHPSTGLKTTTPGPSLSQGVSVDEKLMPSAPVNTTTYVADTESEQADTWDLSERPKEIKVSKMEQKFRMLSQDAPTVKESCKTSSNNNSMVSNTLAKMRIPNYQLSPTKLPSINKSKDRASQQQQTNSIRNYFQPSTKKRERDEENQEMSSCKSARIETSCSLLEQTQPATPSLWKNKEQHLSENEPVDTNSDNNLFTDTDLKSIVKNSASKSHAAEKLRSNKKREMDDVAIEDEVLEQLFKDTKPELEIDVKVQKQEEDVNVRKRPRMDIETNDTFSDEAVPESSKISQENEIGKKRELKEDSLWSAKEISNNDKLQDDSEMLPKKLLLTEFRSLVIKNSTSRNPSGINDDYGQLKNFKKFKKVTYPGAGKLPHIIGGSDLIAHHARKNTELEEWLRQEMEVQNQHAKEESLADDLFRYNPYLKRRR

Experiments:
[1] = target: FLAG-hSSB1 (human single-stranded DNA-binding protein 1), wild type (human) (UniProt Q9BQ15); test: co-IP; HEK293T transfected with FLAG-hSSB1 plasmids (with HA-SUMO3 in Fig. 5e), with or without 100 μM etoposide for 24 h, ML-792 at the indicated concentrations in Fig. 5e; anti-FLAG IP, western blot for NBS1
FLAG-hSSB1-K94R (human) = target: T1, FLAG-hSSB1-K94R (human) (UniProt Q9BQ15); test: as above
T1 sequence: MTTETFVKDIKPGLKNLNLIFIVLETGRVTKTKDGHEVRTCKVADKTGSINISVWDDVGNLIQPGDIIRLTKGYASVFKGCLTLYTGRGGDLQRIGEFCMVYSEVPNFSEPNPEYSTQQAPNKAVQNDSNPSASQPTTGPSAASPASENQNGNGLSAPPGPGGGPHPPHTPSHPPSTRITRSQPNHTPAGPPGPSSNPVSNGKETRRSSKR

FLAG-hSSB1-K79R (human) = target: T2, FLAG-hSSB1-K79R (human) (UniProt Q9BQ15); test: as above
T2 sequence: T1 sequence with K79R, R94K

[2] = target: hSSB1, endogenous (human (endogenous in HEK293T)) (UniProt Q9BQ15); test: co-IP; endogenous proteins: HEK293T RIPA lysate, anti-hSSB1 antibody (IgG as control) 2 h at 4 °C, protein A/G-agarose overnight, four washes with RIPA, western blot

binding [1]: binds
binding (FLAG-hSSB1-K94R (human)): binds
binding (FLAG-hSSB1-K79R (human)): binds
Molecule: NBS1 (from UniProt O60934 1-754)

binding [2]: binds
B1: SENP2, endogenous (enzyme, UniProt Q9HC62 1-589)
chain: MYRWLVRILGTIFRFCDRSVPPARALLKRRRSDSTLFSTVDTDEIPAKRPRLDCFIHQVKNSLYNAASLFGFPFQLTTKPMVTSACNGTRNVAPSGEVFSNSSSCELTGSGSWNNMLKLGNKSPNGISDYPKIRVTVTRDQPRRVLPSFGFTLNSEGCNRRPGGRRHSKGNPESSLMWKPQEQAVTEMISEESGKGLRRPHCTVEEGVQKEEREKYRKLLERLKESGHGNSVCPVTSNYHSSQRSQMDTLKTKGWGEEQNHGVKTTQFVPKQYRLVETRGPLCSLRSEKRCSKGKITDTETMVGIRFENESRRGYQLEPDLSEEVSARLRLGSGSNGLLRRKVSIIETKEKNCSGKERDRRTDDLLELTEDMEKEISNALGHGPQDEILSSAFKLRITRGDIQTLKNYHWLNDEVINFYMNLLVERNKKQGYPALHVFSTFFYPKLKSGGYQAVKRWTKGVNLFEQEIILVPIHRKVHWSLVVIDLRKKCLKYLDSMGQKGHRICEILLQYLQDESKTKRNSDLNLLEWTHHSMKPHEIPQQLNGSDCGMFTCKYADYISRDKPITFTQHQMPLFRKKMVWEILHQQLL
